In the RNAGym collection of RNA variant scans (doi:10.1073/pnas.2313332121):
Variants at the background level are over-represented here.

B1: TPR 5TU (parent)
chain: GGAUCUUCUCGAUCUAACAAAAAAGACAAAUCUGCCACAAAGCUUGAGAGCAUCUUCGGAUGCAGAGGCGGCAGCCUUCGGUGGCGCGAUAGCGCCAACGUUCUCAACUAUGACACGCAAAACGCGUGCUCCGUUGAAUGGAGUUUAUCAUG

Variants of: B1
Experiment: polymerase ribozyme fitness, log enrichment relative to wild type (log ratio); higher = more active; in vitro selection for triplet polymerase activity
Summary of the method: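 Mutant libraries for each subunit of a heterodimeric triplet polymerase ribozyme were made by PCR and then transcribed. Each library underwent one round of in vitro selection in triplicate: annealing with a biotinylated primer, the partner subunit and triplets, frozen incubation at −7 °C, gel excision of extended constructs, streptavidin-bead capture and RT-PCR. Input and output libraries were Illumina-sequenced, and only genotypes with ≥10 input reads and ≥1 read per output were kept. Fitness is the logarithm, base 2, of genotype enrichment over wild-type enrichment, computed from inverse-variance-weighted replicate averages.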

Variant | polymerase ribozyme fitness (log ratio)
GGAUCUUCUCGAUCUAACAAAAAAGUCAAAUCUGCCCCAAAGCUUGAGAGCAUCUUCGGAUGCAGAGGCGGCAGCCUUCGGUGGCGCGAUAGCGGCAACGUUCUCACCUAUGACACGCAAAACGCGUGCUCCGUUGAAUGGAGUUUAUCAUU [A26U A37C C95G A107C G152U] | ≤ -4.2
GGAUCUUCUCGAUCUAACAAAAAAGUCAAAUCUGCGUCAAAGCUUGAGAGUAUCUUCGGAUGCAGAGGCGGCAGCCUUCGGUGGCGCGAUAGCGCCAACGUUCUCAACUAUGACACGCAAAACCCGUGCUCCGUUGAAUGGAGUUUAUCAUG [A26U C36G A37U C51U G124C] | ≤ -4.2
GGAUCUUCUCGAUCUAACAAAAAAGGCAAAUCUGCCACAAAGCUUGAGAGCAUCAUCGGAUGCAGAGGCGGCAGCCUUCGGUGGCGCGAUAGCGCUAACGUUCUCAACUAUGACACGCAAAACGCGUGCUCCGUUGCAUGGAGUUUAUCAUG [A26G U55A C96U A137C] | ≤ -4.2
GGAUCUUCUCGAUCUAACAAAAAAGUCAAAUCUGCCACAAAGCUUGAGGGCAUCUUAGGAUGCAGAGGCGGCAGCCUUCGGUGGCGCUAUAACGCCAACAUUCUCUACUAUGACACGCAAAACGUGUGCUCCGUUGAAUGGAGUUUAUCAUG [A26U A49G C57A G88U G92A G100A A106U C125U] | ≤ -4.2
GGAUCUUCUCGAUCUAACAAAAAAGUCAAUUCUGCCACAAAGCUUGAGAGCAUCUUCGGAUGCAGAGGCGGCAGCCUUCGGUGGCGCGAUAGCGCCAACGUUCUCAACUAUGACACGCAAAACGCGUGCUCCGUUGAAUUGAGUUUAUCAUG [A26U A30U G140U] | ≤ -4.2
GGAUCUUCUCGAUCUAACAAAAAAGUCAAAUCUGCUACAAAGCUUGAGAGCAUCAUCGGAUGCAGAGUCGGCAGCCUUCGGUGGUGCGAUAUCGCCAACGUUCUCAACUAUGACACGCAAAACGGGUGCUCCGUUGAAUGGAGUUUUUCAUG [A26U C36U U55A G68U C85U G92U C125G A147U] | ≤ -4.2
GGAUCUUCUCGAUCUAACAAAAAAGUCAAAUCUGCCACAAAGCUUGAGAGCAUCUUCGGAUGCAGCGGCGGGAGCCUUCGGUGUCGCGAUAGCGCCAACGUUCUCAACUAUGACACGCAAAACGCGUGCUGCGUUGAAUGGCGUUUAUCAUG [A26U A66C C72G G84U C131G A142C] | ≤ -4.2
GGAUCUUCUCGAUCUAACAAAAAAGUCAAAUUUGCCACAAAGCUAGAGAUCAUCAUCGGAUGCAGAGGCGGCAGCCUUCGGUGGCGCGAUAACGCCAACGUUCUCAACUAUGACACGCAAAACGCGUGCUCCGUUGAAUGGAGUUUAUCAUG [A26U C32U U45A G50U U55A G92A] | ≤ -4.2
GGAUCUUCUCGAUCUAACAAAAAAGUCAAAUCUGCCACAAAGCUUGAGCGCAUCUUCGGAUGCAGAGGCGGCAGCCUUCGGCGGCGCGAUAGCGCCUACGUUCUCAACUAUGGCACGCAAAACGCGUGCUCCGUUGAAUGGAGUUUAUCAUG [A26U A49C U82C A97U A113G] | ≤ -4.2
GGAUCUUCUCGAUCUAACAAAAAAGUCAAAUCUGCCACGAAGCUUGAGAGCAUCUUCGGAUGCAGAGGCGUCAGCCUUCGGUGGCGCGAUAGCGCCAACGUUCUCAACUAUGACACGCAAAACGCGUGCUCCGUUGAAUGGAGUUUAUCAUG [A26U A39G G71U] | ≤ -4.2
GGAUCUUCUCGAUCUAACAAAAAAGUCAUAUCUGCCACAAAGCUUGAAAGCAUCUUCGGAUGCAGAGGCGGCAGCCUUCGGUGGCGCAAUAGCGCCAACGUUCUCAACUAUGACACGCAAAACGCGUGCUCUGUUGAAUGGAGUUUAUCAUG [A26U A29U G48A G88A C132U] | ≤ -4.2
GGAUCUUCUCGAUCUAACAAAAAAGUCAAAUCUGCCACAAAGCUUGAGAGCAUCUUCGGAUGCAGAGGCGGCAGCCUUCGGUGGCGCGAUAGCGCCAACGUUCUCAACUAUGACACGCAAAACGCGUGCUCCGUUGAAUGGAGUUUAUCAUG [A26U] | -1.21
GGAUCUUCUCGAUCUAACAAAAAAGUGGAAUCUGCCACAAAGCUUGAGAGCAUCUUCGGAUGCAGAGGCAGCAGCCUUCGGUGGCGCGAUAGCGCCAACGUUCUCAACUAUGACACGCAAAACGCGUGCUCCGUUGAAAGGAGUUUAUCAUG [A26U C27G A28G G70A U139A] | ≤ -4.2
GGAUCUUCUCGAUCUAACAAAAAAGUCAUAUCUGCCACAAAGCUUGAGAACAUCUACGGAUGCAGAGGGGGCAGCCUUCGGUGGCGCGAUAGCGCAAACGUUCUCAACUAUGACACGCAAAACGCGUGCUCCGUUGAAUGGAGUUUAUCAUG [A26U A29U G50A U56A C69G C96A] | ≤ -4.2
GGAUCUUCUCGAUCUAACAAAAAAGUCAAAUCUGCCACAAAGCUUGAGUGCAUCUUCGGAUGCAGAGUCGGUAGCCUUCGGUGACUCGAUAGCGCCAACGUUCUCAACUAUAACACGCAAAGCGCGUGCUCCGUUGAAUGGAGUUUAUCAUG [A26U A49U G68U C72U G84A G86U G112A A122G] | ≤ -4.2
GGAUCUUCUCGAUCUAACAAAAAAGUCAACUCUGCCACAAAGCUUGAGAGCAUCUUCGGAUGCAGAGGCGCCAGCCUUAGGUGGCGCGAUAGCGCCAACGUUCUCAACUAUGACACGCAAAACGAGUGCUCCGUUGAAUGGAGUUUAUCAUG [A26U A30C G71C C79A C125A] | ≤ -4.2
GGAUCUUCUCGAUCUAACAAAAAAGUCAACUCUGCAACAAAGCUUGAGAGCAUCUUCGGAAGCAGAGGCGGCAGCCUUCGGUGGUGCGAUAGCGGCAACGUUCUCAACUAUGACACUCAAAACGCGUGCUCCGUUGAAUGGAGUUUAUCAUG [A26U A30C C36A U61A C85U C95G G117U] | ≤ -4.2
GGAUCUUCUCGAUCUAACAAAAAAGUCAAAUCUGCAACAAAGCUUGAGAGCAUCUUCGGAUGCAGAGCCGGCAGCCUUCGGUGGCUCCAUAGCGCCAACGUUCUCAACUAUGACACGCAAAACGCGUGCUCCGUUGAAUGGAGUUUAUCAUG [A26U C36A G68C G86U G88C] | ≤ -4.2
GGAUCUUCUCGAUCUAACAAAAAAGUCUAAUAUGCCACAAAGCUUGAGAGCUUCUUCGGAUGCAGAGGCGGCUGCCUUCGGUGGCGCGAUUACGCCAACGUUCUCAACUAUGGCACGCAAAACGCGUGCUCCGUUGAAUGGAGUUUAACAUU [A26U A28U C32A A52U A73U A91U G92A A113G U148A G152U] | ≤ -4.2
